Laboratory results from patent US20040091495A1 (published 2004).

Molecular target: T1, complement factor H (human, UniProt P08603 19-1231, 125I-labelled (Iodobeads) in the blot and bacterial binding assays)
T1 construct: also called fH; FH
Test: competitive binding assay: 125I-fH binding to PR218 bacteria (10^9 CFU/ml) in the presence of increasing GST

T1 sequence (P08603 19-1231 limits assumed): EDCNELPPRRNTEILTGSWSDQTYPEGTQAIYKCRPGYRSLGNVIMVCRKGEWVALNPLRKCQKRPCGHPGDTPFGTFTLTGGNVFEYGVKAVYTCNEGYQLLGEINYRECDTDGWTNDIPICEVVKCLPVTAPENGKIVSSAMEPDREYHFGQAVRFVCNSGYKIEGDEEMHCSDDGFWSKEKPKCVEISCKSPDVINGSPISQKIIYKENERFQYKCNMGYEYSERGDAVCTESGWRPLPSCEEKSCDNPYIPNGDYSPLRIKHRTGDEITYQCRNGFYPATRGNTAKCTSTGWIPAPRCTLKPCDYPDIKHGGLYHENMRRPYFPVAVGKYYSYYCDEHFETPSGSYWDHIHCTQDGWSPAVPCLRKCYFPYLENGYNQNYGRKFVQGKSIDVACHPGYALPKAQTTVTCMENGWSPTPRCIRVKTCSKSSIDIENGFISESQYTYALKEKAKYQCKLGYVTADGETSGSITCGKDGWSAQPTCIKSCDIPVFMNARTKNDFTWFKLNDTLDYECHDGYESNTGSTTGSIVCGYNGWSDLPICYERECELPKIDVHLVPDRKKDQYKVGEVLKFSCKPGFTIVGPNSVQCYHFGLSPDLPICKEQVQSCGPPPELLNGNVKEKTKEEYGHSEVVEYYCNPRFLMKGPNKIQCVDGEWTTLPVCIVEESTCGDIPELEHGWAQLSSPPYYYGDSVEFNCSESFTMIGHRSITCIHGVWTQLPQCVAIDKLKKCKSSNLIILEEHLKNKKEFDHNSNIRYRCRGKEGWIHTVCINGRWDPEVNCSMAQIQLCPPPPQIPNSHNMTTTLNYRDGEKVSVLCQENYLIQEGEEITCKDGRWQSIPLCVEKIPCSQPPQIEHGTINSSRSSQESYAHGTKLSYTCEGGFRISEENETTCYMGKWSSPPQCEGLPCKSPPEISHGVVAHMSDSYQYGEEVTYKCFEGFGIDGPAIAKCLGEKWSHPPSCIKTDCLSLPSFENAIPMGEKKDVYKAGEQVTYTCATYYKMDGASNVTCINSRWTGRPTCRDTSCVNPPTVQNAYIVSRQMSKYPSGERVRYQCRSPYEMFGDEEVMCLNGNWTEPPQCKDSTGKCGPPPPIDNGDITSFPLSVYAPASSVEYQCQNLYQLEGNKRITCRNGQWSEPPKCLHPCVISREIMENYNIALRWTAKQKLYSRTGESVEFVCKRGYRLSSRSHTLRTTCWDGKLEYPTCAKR

B1: glutathione S-transferase (enzyme)
chain: not shown
notes: Control for the fusion protein; also called GST
B1: no binding (tested: about 140 nM).
